From PubChem BioAssay AID504339 (National Center for Advancing Translational Sciences (NCATS), 2011)
The campaign covered roughly 390,000 compounds. About 17,000 (4.4%) were called active. Inconclusive results, whose numbers are uncertain, are shown with a selection of clear calls. Calls follow the shape of the dose curve; as a rule, active = well fitted inhibition curve with a large enough effect; inconclusive = small, poorly fitted or top-dose-only effect; inactive = no such curve, though single readings can be large or run the other way. A potency beside an inconclusive call is a rough fit, not a confirmed value.

target: Lysine-specific demethylase 4A (Homo sapiens) (UniProt O75164); test: qHTS Assay for Inhibitors of JMJD2A-Tudor Domain; settings: AlphaScreen JMJD2A-Tudor / H3K4me3 peptide binding; series mostly up to 114 µM; also: nearly all actives have a fitted effect of over 50% in size
Chain of UniProt O75164 (O75164 whole entry, looked up, the tested form may be a part): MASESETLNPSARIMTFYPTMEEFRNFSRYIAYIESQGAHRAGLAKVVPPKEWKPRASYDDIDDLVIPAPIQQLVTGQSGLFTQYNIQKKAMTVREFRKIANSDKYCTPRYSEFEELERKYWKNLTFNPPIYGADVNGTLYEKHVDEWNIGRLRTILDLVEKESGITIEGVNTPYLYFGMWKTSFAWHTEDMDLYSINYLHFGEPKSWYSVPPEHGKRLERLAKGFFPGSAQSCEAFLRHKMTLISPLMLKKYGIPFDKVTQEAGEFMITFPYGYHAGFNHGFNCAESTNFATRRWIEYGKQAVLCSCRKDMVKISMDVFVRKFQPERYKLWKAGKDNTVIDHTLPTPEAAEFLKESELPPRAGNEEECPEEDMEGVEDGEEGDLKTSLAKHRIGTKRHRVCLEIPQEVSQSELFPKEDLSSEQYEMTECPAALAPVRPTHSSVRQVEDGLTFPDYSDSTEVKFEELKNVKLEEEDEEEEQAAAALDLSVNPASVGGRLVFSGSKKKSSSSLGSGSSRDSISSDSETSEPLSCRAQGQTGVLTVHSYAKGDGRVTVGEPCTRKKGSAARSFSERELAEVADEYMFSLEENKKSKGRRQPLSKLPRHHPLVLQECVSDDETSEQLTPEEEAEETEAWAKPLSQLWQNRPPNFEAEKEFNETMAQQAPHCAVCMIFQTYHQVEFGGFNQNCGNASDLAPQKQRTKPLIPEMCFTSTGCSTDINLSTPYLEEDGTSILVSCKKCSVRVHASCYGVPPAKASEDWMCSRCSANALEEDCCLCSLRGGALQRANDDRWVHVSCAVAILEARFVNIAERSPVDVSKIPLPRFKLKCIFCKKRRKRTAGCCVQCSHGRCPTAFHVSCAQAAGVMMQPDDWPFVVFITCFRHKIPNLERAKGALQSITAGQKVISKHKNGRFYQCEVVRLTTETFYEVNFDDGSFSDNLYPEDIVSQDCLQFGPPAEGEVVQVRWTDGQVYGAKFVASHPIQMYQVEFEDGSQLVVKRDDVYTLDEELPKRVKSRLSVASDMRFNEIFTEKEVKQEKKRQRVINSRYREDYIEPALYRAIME
Potency is read from the fitted curve at half-maximal effect; tags tell the direction and shape of the fitted curve.

Question: With `COc1ccc(N)c(C)c1` as the compound, how does the Potency read?
Answer: inconclusive: 79.4 µM [inhibitor, partial curve]

Question: `CCCCNC(=O)[C@@](CC)(ONc1ccccc1C(F)(F)F)c1cccc2ccccc12` was tested. Which Potency did it give?
Answer: inconclusive: 20 µM [inhibitor, full curve]

Question: For `COc1ccc(/C=C2\C(=O)N(c3c(Cl)cc(Cl)cc3Cl)N=C2NC(=O)c2cccc([N+](=O)[O-])c2)cc1`, which Potency is on record?
Answer: inconclusive: 14.1 µM [inhibitor, partial curve]

Question: For `CCOP(=O)(OCC)C(NC(=O)Nc1ccc(C)cc1)C(N)=O` (stereo not given), which Potency is on record?
Answer: inconclusive: 22.4 µM [inhibitor, partial curve]

Question: Which Potency does the source give for `CN(Cc1cn(C)c2ccccc12)C(=S)Nc1cc(F)cc(F)c1` here?
Answer: inconclusive: 35.5 µM [inhibitor, partial curve]

Question: `COc1ccc(Cc2c(C)nn(-c3nc(C)c(C(=O)Nc4ccc(C)cc4C)s3)c2C)cc1` was tested. Which Potency did it give?
Answer: inconclusive: 100 µM [inhibitor, single point]

Question: How did the Potency turn out when `O=C(Cc1ccccc1F)Nc1ccc(S(=O)(=O)Nc2ncccn2)cc1` was run?
Answer: inconclusive: 25.1 µM [inhibitor, partial curve]

Question: `Cc1ccc(NC(=O)CSc2nnc(-c3cccs3)n2Cc2ccco2)cc1` was tested. Which Potency did it give?
Answer: inconclusive: 50.1 µM [inhibitor, partial curve]

Question: Which Potency does the source give for `COC(=O)C1=C(C(=O)OC)[C@@H]2N(C)c3ccccc3[C@@]23C[C@@H](C(=O)OC)N(C(=O)CC(C)C)C3=N1` here?
Answer: inconclusive: 56.2 µM [inhibitor, partial curve]

Question: With `COc1ccc(C(=O)N/C(=C\c2cn(C)c3ccccc23)C(=O)N2CCN(C)CC2)cc1OC` as the compound, how does the Potency read?
Answer: inconclusive: 22.4 µM [inhibitor, full curve]

Question: With `CN(C)c1ccc(/C=N/n2c(-c3ccccc3Br)n[nH]c2=S)cc1` as the compound, how does the Potency read?
Answer: active: 14.1 µM

Question: Which Potency does the source give for `CC1CCCC(C)N1/N=C/c1ccc(O)cc1` (stereo not given) here?
Answer: inconclusive: 39.8 µM [inhibitor, partial curve]

Question: `CC(C)c1ccc(/C=C2\CC/C(=C\C=N\N(C)C)C2=O)cc1` was tested. Which Potency did it give?
Answer: inconclusive: 10 µM [inhibitor, partial curve]

Question: With `O=C1CCCN1CCCNc1nc2c(S(=O)(=O)c3ccc(Br)cc3)nnn2c2ccccc12` as the compound, how does the Potency read?
Answer: inconclusive: 39.8 µM [inhibitor, partial curve]

Question: For `CCOC(=O)Oc1ccc2oc(=O)cc(C)c2c1`, which Potency is on record?
Answer: inactive

Question: `CC(C)NC[C@@H](O)c1ccc(O)c(O)c1` was tested. Which Potency did it give?
Answer: active: 44.7 µM

Question: `O=S1(=O)N=C(Oc2ccccc2Br)c2ccccc21` was tested. Which Potency did it give?
Answer: active: 79.4 µM

Question: Which Potency does the source give for `Cc1ccccc1CSCCNC(=O)CN(c1ccccc1)S(=O)(=O)N(C)C` here?
Answer: active: 44.7 µM

Question: For `O=[N+]([O-])c1ccc(/C=N/NC(=S)Nc2ccccc2)o1`, which Potency is on record?
Answer: inconclusive: 50.1 µM [inhibitor, partial curve]

Question: Which Potency does the source give for `COC(=O)C1=CN(Cc2cccs2)C=C(C(=O)OC)C1c1cccc(Cl)c1` here?
Answer: inactive

Question: With `Cc1ccc(/C(O)=C2/C(=O)C(=O)OC2c2ccc(Cl)cc2)cc1` (stereo not given) as the compound, how does the Potency read?
Answer: active: 79.4 µM

Question: `O=C(CSc1nnc(Cc2ccccc2)o1)NCc1ccc2c(c1)OCO2` was tested. Which Potency did it give?
Answer: inactive

Question: For `COc1cc2c(cc1OC)CN(Cc1cccs1)CC2`, which Potency is on record?
Answer: active: 3.16 µM

Question: How did the Potency turn out when `COCC(=O)NNS(=O)(=O)c1ccccc1[N+](=O)[O-]` was run?
Answer: inactive

Question: `C(=N\Nc1ccccn1)/c1ccc(N2CCOCC2)cc1` was tested. Which Potency did it give?
Answer: inconclusive: 44.7 µM [inhibitor, full curve, poor fit]

Question: Which Potency does the source give for `Cc1ccc(OCCC(=O)N2CCN(c3ccc(O)cc3)CC2)cc1` here?
Answer: active: 14.1 µM

Question: Which Potency does the source give for `Cc1cccc(N2CCN(CC(O)COc3ccccc3Cl)CC2)c1` (stereo not given) here?
Answer: inconclusive: 50.1 µM [inhibitor, partial curve]

Question: For `O=C1CC(NS(=O)(=O)c2ccc([N+](=O)[O-])cc2)CN1c1cccc(F)c1` (stereo not given), which Potency is on record?
Answer: inactive

Question: Which Potency does the source give for `Cc1cc(C)c2nc(NC(=O)C3CC(=O)N(Cc4ccco4)C3)sc2c1` (stereo not given) here?
Answer: inconclusive: 44.7 µM [inhibitor, partial curve]

Question: For `COc1ccc2sc(N(CCN(C)C)C(=O)/C=C/c3cccs3)nc2c1`, which Potency is on record?
Answer: inconclusive: 25.1 µM [inhibitor, full curve]

Question: `Cc1ccccc1CCN(C(=O)Cn1nnc2ccccc21)C(C(=O)NC(C)(C)C)c1ccsc1` (stereo not given) was tested. Which Potency did it give?
Answer: inconclusive: 100 µM [inhibitor, single point]

Question: For `O=C(CN1c2ccccc2Sc2ccccc21)N/N=C/c1ccc([N+](=O)[O-])cc1`, which Potency is on record?
Answer: inconclusive: 39.8 µM [inhibitor, partial curve]

Question: How did the Potency turn out when `O=C(NCc1ccc2c(c1)OCO2)C1CC(c2cccc(Br)c2)=NO1` (stereo not given) was run?
Answer: inactive

Question: How did the Potency turn out when `O=C(NNC(=O)c1cc2cc3ccccc3nc2s1)c1cccc(C(F)(F)F)c1` was run?
Answer: inconclusive: 56.2 µM [inhibitor, partial curve, poor fit]

Question: How did the Potency turn out when `O=C(O)CSc1nnc(CSc2nc3ccccc3s2)n1-c1ccccc1` was run?
Answer: inactive

Question: `COc1cc(CCC(=O)OCc2ccccc2C#N)cc(OC)c1OC` was tested. Which Potency did it give?
Answer: inactive

Question: `Cc1c(CCC(=O)NCCCn2ccnc2)c(=O)oc2cc3occ(C(C)(C)C)c3cc12` was tested. Which Potency did it give?
Answer: inconclusive: 56.2 µM [inhibitor, partial curve, poor fit]

Question: Which Potency does the source give for `CC(C)C[C@H](CO)Nc1nc(N(C)c2cccc(Cl)c2)c2ncn(C(C)C)c2n1` here?
Answer: inconclusive: 79.4 µM [inhibitor, partial curve]

Question: With `CN1CCc2cccc3c2[C@@H]1Cc1ccc(O)c(O)c1-3` as the compound, how does the Potency read?
Answer: active: 12.6 µM

Question: Which Potency does the source give for `COc1ccccc1OCC(=O)NNC(=O)c1ccc(F)c(S(=O)(=O)N2CCOCC2)c1` here?
Answer: inconclusive: 17.8 µM [inhibitor, single point]

Question: How did the Potency turn out when `COc1ccc(-c2[nH]ncc2CN(CC2CCC(=O)N2)C(C)C)cc1F` (stereo not given) was run?
Answer: inconclusive: 25.1 µM [inhibitor, single point]

Question: How did the Potency turn out when `CCOc1ccc2nc(NCCNS(=O)(=O)c3ccccc3)c(C#N)cc2c1` was run?
Answer: inconclusive: 39.8 µM [inhibitor, full curve]

Question: With `O=C(CNCc1ccccn1)Nc1cc(C(F)(F)F)ccc1N1CCOCC1` as the compound, how does the Potency read?
Answer: active: 44.7 µM

Question: With `CN(CC(=O)Nc1ccccc1C(=O)Nc1ccccc1)C1CCCCC1` as the compound, how does the Potency read?
Answer: inactive

Question: With `CN(C)c1ccc(C2Nc3ccccc3C(=O)N2NS(=O)(=O)c2ccccc2)cc1` (stereo not given) as the compound, how does the Potency read?
Answer: inconclusive: 50.1 µM [inhibitor, partial curve]

Question: For `c1cncc(-c2nc(NCCCn3ccnc3)c3ccccc3n2)c1`, which Potency is on record?
Answer: active: 20 µM

Question: With `O=C(NCc1ccco1)/C(=C\C=C\c1ccccc1)NC(=O)c1ccccc1Br` as the compound, how does the Potency read?
Answer: inconclusive: 35.5 µM [inhibitor, partial curve]

Question: Which Potency does the source give for `CC(C)(C)NC(=O)CN(CC1CCCO1)C(=O)CNS(=O)(=O)c1ccc(F)cc1` (stereo not given) here?
Answer: inactive

Question: With `O=C(N/N=C/c1ccccn1)c1cc(-c2ccc3ccccc3c2)n[nH]1` as the compound, how does the Potency read?
Answer: inconclusive: 56.2 µM [inhibitor, partial curve]

Question: With `CCc1c(C(=O)N2CCOCC2)csc1C` as the compound, how does the Potency read?
Answer: inactive

Question: `O=S(=O)(Nc1ccc(O)c2ccccc12)c1ccc(F)cc1` was tested. Which Potency did it give?
Answer: active: 50.1 µM

Question: `Cc1ccccc1CNC(=O)c1ccc(CS(=O)Cc2ccc(Cl)cc2)o1` (stereo not given) was tested. Which Potency did it give?
Answer: inactive

Question: For `Cc1ccc(-c2csc(N3CCN(CCCn4c(-c5ccncc5)nc5ccccc54)CC3)n2)cc1`, which Potency is on record?
Answer: inconclusive: 35.5 µM [inhibitor, partial curve]

Question: `COc1cc(/C=C2\SC(=S)N(CC(=O)Nc3ccccn3)C2=O)cc(OC)c1OC` was tested. Which Potency did it give?
Answer: inconclusive: 11.2 µM [inhibitor, full curve, poor fit]

Question: For `COc1ccc(-c2[nH]c(-c3cccc(OC)c3)nc2SCC(=O)NCc2ccco2)cc1`, which Potency is on record?
Answer: inconclusive: 100 µM [inhibitor, partial curve, poor fit]

Question: Which Potency does the source give for `COc1ccc2[nH]cc(CCNC(=O)c3cnn(-c4ccccc4Cl)c3C3CCN(C(=O)OC(C)(C)C)CC3)c2c1` here?
Answer: inconclusive: 31.6 µM [inhibitor, partial curve]

Question: `CCc1ccccc1NC(=O)Cc1ccc(-n2cccc2)cc1` was tested. Which Potency did it give?
Answer: inconclusive: 31.6 µM [inhibitor, single point]

Question: For `Cc1ccc(NC(=O)Cn2nnc(-c3nc(-c4ccc(Cl)cc4)no3)c2N)cc1C`, which Potency is on record?
Answer: inactive

Question: `Cc1nc2c(C(=O)NCCc3ccccc3)c[nH]n2c(=O)c1Cc1ccc(F)cc1Cl` was tested. Which Potency did it give?
Answer: inconclusive: 89.1 µM [inhibitor, partial curve]

Question: Which Potency does the source give for `CCCn1c(Cc2ccccc2)n[nH]c1=S` here?
Answer: active: 7.08 µM

Question: How did the Potency turn out when `CN(CCOc1ccccc1Cl)Cc1ccccc1` was run?
Answer: active: 22.4 µM

Question: `Cc1cccc(N2CCN(C(=O)c3ccc4c(c3)NC(=O)C(CSCc3cccc(F)c3)N4)CC2C)c1` (stereo not given) was tested. Which Potency did it give?
Answer: inconclusive: 25.1 µM [inhibitor, full curve]

Question: For `CCCOc1ccc(-c2nc(N3CCN(CC)CC3)c3ccccc3n2)cc1`, which Potency is on record?
Answer: inconclusive: 50.1 µM [inhibitor, partial curve]

Question: `O=C(C1CCC(CNc2nc(=S)[nH]c3ccccc23)CC1)N1CCN(c2ccc(F)cc2)CC1` (stereo not given) was tested. Which Potency did it give?
Answer: inconclusive: 56.2 µM [inhibitor, partial curve]

Question: How did the Potency turn out when `Cc1[nH]c2ccccc2c1C(=O)COC(=O)c1ccc([N+](=O)[O-])s1` was run?
Answer: inconclusive: 22.4 µM [inhibitor, full curve]

Question: Which Potency does the source give for `O=C(O)c1cc(-c2ccco2)nc2ccccc12` here?
Answer: active: 25.1 µM

Question: `CC(=O)c1ccc(S(=O)(=O)Nc2cccc(-n3cnnn3)c2)cc1` was tested. Which Potency did it give?
Answer: inconclusive: 100 µM [inhibitor, partial curve]

Question: `O=C(NCc1ccco1)C1CCCN1C(=O)Nc1ccc(Cl)cc1` (stereo not given) was tested. Which Potency did it give?
Answer: active: 14.1 µM

Question: `Cc1c(C#N)c(O)[nH]c(=O)c1N=Nc1ccc(Br)cc1C(=O)O` was tested. Which Potency did it give?
Answer: inconclusive: 39.8 µM [inhibitor, partial curve]

Question: With `COc1ccc(C(=O)NNC2=CC(=O)CC(C)(C)C2)cc1OC` as the compound, how does the Potency read?
Answer: inactive
